For 1 compound, IC50 results are on record in PubChem BioAssay AID2060343 (Molecular Pharmacology Branch, DTP, NCI, 2025).

The test system of the assay is 138582-337-R-J1-PDC spheroids with HUVEC/MSC, viability. Kind of assay: Anticancer human tumor 138582-337-R-J1-PDC patient-derived Merkel cell tumor cell line growth inhibition [IpAb]. The following applies: compound alone; run of 05/18/2021. The source says:
Combinatorial screen of targeted agents with ipatasertib and abemaciclib in multi-cell type tumor spheroids
A high-throughput screen of multi-cell type tumor spheroids was designed to identify active combinations of targeted small molecules and ipatasertib or abemaciclib. Complex spheroids include a stromal component modeled by human endothelial cells (HUVEC) and fibroblasts modeled by human mesenchymal stem cells (MSCs). The concentration ranges selected for each drug and investigational agent were based upon clinically achievable concentrations if the clinical Cmax of the agent was known.
Compounds. […] If the clinical Cmax for an agent had not been determined, the highest concentration tested was 10 microM.
NCI60 Cell Culture. […] The optimal seeding densities for each of the cell lines at each time point assessed were determined prior to performing the concentration response studies. […]

In general, IC50 refers to the point on the concentration scale where inhibition reaches its midpoint.

Molecules are shown by their SMILES. A number of entries come with more than one value. This list holds those alone. The source may hold further records. The values listed for one entry repeat one measurement (runs, samples, wells, individuals or studies).
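Also: spheroids exposed to compounds for seven days.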

For `CC(C)NCC(C(=O)N1CCN(c2ncnc3c2C(C)CC3O)CC1)c1ccc(Cl)cc1` (stereo unspecified), the IC50 is recorded as 2.24, 5.91, 2.54, 3.1, 3.71, 4.77, 2.17, 7.4, 5.14, 6.92, 4.73, 2.96, 3.88 µM.
